# Results from PubChem BioAssay AID540317 (National Center for Advancing Translational Sciences (NCATS), 2011).
# Values joined by “and” are separate entries in the source; they are usually repeats but may differ in a detail not shown here. Equal entries are not always repeated. The whole screen tested about 390,000 compounds, of which about 2,200 (0.56%) were called active. The inconclusive results got no clear call from the source; some entries with a clear call stand among them for comparison. Calls follow the shape of the dose curve; as a rule, active = well fitted inhibition curve with a large enough effect; inconclusive = small, poorly fitted or top-dose-only effect; inactive = no such curve, though single readings can be large or run the other way. Potencies beside an inconclusive call are fits to weak or partial responses and may not hold up.
# Molecular target: Chromobox protein homolog 1 (Homo sapiens) (UniProt P83916)
# Assay: HTS for Inhibitors of HP1-beta Chromodomain Interactions with Methylated Histone Tails; also: nearly all actives have a fitted effect of over 70% in size
# Details: AlphaScreen HP1-beta / biotin-H3K9me3 peptide binding; series mostly up to 114 µM
# How it was run: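 Compound inhibition of the preformed complex between 50 nM HP1-beta and 50 nM biotinylated H3K9me3 peptide was read by AlphaScreen. Buffer was PBS pH 7.4 with 0.01% Tween-20. Incubations ran 30 min at room temperature, with 10 ug/mL donor/acceptor beads.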
# Potency is read from the fitted curve at half-maximal effect; tags tell the direction and shape of the fitted curve.
# UniProt P83916, sequence (P83916 whole entry, looked up): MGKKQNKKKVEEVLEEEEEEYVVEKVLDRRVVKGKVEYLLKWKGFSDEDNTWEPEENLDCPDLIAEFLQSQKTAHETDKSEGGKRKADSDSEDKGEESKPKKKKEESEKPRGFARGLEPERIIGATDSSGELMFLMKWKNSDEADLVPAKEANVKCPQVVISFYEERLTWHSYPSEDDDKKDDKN
row,Structure (SMILES),Potency
1,CN(C)/C=C1\NC(=S)N(c2ccc(Cl)cc2)C1=O,"inconclusive: 12.6 µM [inhibitor, partial curve]"
2,COc1cc(N2CCCC2)c(OC)cc1/C=C(/C#N)c1cccc(F)c1,"inconclusive: 7.08 µM [inhibitor, single point]"
3,CCOc1cc(N2CCOCC2)c(OCC)cc1NC(=O)Cc1ccccc1OC,"inconclusive: 70.8 µM [inhibitor, partial curve]"
4,CC1CCc2ccccc2N1C(=O)c1cccs1 (stereo unspecified),"inconclusive: 39.8 µM [inhibitor, single point]"
5,O=C(CSc1n[nH]c(=O)[nH]c1=O)N1CCCCCC1,"inconclusive: 50.1 µM [inhibitor, partial curve]"
6,OC1CCN(Cc2ccc3ccccc3c2)CC1,"inconclusive: 35.5 µM [inhibitor, partial curve]"
7,O=C(OCC(=O)N1N=C(c2ccc(Cl)cc2)CC1c1ccco1)c1cccnc1 (stereo unspecified),"inconclusive: 50.1 µM [inhibitor, partial curve]"
8,COc1ccc(N2CCN(C(=O)CSCc3nc(-c4ccccc4Cl)oc3C)CC2)cc1,"inconclusive: 25.1 µM [inhibitor, full curve]"
9,CNS(=O)(=O)c1cn(CC(=O)NCc2ccc(N(C)C)cc2)cc1S(=O)(=O)NC,inactive
10,O=C(NCCc1ccc(Cl)cc1)c1cccn1-c1nnc(N2CCCCC2)s1,inactive
11,COc1ccc(/C=N/NC(=O)CN2CCSCC2)c(OC)c1,"inconclusive: 50.1 µM [inhibitor, partial curve, poor fit]"
12,COc1ccc(-c2csc3ncnc(N4CCN(c5ccc(OC)cc5)CC4)c23)cc1,"inconclusive: 14.1 µM [inhibitor, full curve, poor fit]"
13,Cc1ccc(NC(=O)CN2CCN(Cc3ccccc3)CC2)c(Br)c1,"inconclusive: 15.8 µM [inhibitor, full curve, poor fit]"
14,C=CCN1C(=O)c2ccc(C(=O)NCCc3ccc(F)cc3)cc2C1=O,inactive
15,Cc1ccc(C(=O)Nc2ccc(-n3c(C)nc4ccccc4c3=O)cc2)cc1[N+](=O)[O-],inactive
16,COc1ccccc1N1CSC2=C(C#N)C(c3ccc(SC)cc3)CC(=O)N2C1 (stereo unspecified),active: 22.4 µM
17,Cc1cc(=O)oc2ccc(OCC(=O)N(Cc3ccc(F)cc3)Cc3ccco3)cc12,"inconclusive: 7.94 µM [inhibitor, full curve]"
18,CCOc1ccc(S(=O)(=O)N2CCC(C(=O)NCc3ccncc3)CC2)cc1Cl,"inconclusive: 89.1 µM [inhibitor, single point]"
19,Oc1cccc2c(NC(=S)Nc3ccc(SC(F)F)cc3)cccc12,"inconclusive: 15.8 µM [inhibitor, full curve]"
20,COc1ccc(/C=C2\SC(=S)N(CCC(=O)Nc3ccccc3C(=O)O)C2=O)cc1,"inconclusive: 50.1 µM [inhibitor, partial curve, poor fit]"
21,Nc1cccc2c1C(=O)c1ccc(Cl)cc1C2=O,"inconclusive: 10 µM [inhibitor, partial curve]"

row,Structure (SMILES),Potency
1,COc1ccc(NC(=O)C2CCN(C(=O)c3sc4nc[nH]c(=O)c4c3C)CC2)c(OC)c1,inactive
2,COc1cccc(CN2CCN(C(=O)c3cccc4ccccc34)CC2)c1,"inconclusive: 50.1 µM [inhibitor, single point]"
3,CCC(=O)Nc1nnc(S(=O)(=O)N(C)Cc2ccc(Cl)cc2)s1,inactive
4,O=C(C1CCN(Cc2ccc(Cl)cc2)CC1)N1CCN(C(c2ccccc2)c2ccccc2)CC1,"inconclusive: 17.8 µM [inhibitor, full curve, poor fit]"
5,Cc1cc(C(=O)CSc2n[nH]c(N)n2)c(C)n1-c1ccc2c(c1)OCO2,"inconclusive: 15.8 µM [inhibitor, partial curve, poor fit]"
6,Cc1ccc(CN=c2c([N+](=O)[O-])nn(-c3cccc(C)c3)n2O)cc1,"inconclusive: 17.8 µM [inhibitor, full curve]"
7,O=[N+]([O-])c1cc([N+](=O)[O-])c2oc(-c3ccccc3)c(Br)c2c1O,"inconclusive: 22.4 µM [inhibitor, full curve]"
8,COc1cc(OC)cc(C(=O)OC(C)C(=O)NC2CCCc3ccccc32)c1 (stereo unspecified),inactive
9,COc1ccc(N2CCN(CCCNC(=O)Nc3ccccc3Cl)CC2)cc1,"inconclusive: 50.1 µM [inhibitor, partial curve, poor fit]"
10,O=C(Nc1ccccc1C(F)(F)F)c1c(F)cccc1Cl,inactive
11,CCOc1ccc(C2=C(C=C(C#N)C#N)C(c3ccccc3)c3ccccc3O2)cc1 (stereo unspecified),"inconclusive: 15.8 µM [inhibitor, full curve]"
12,CC(C)OC(=O)c1cc2c(ccn2C)n1CC(=O)N(Cc1ccccc1)c1ccccc1,"inconclusive: 22.4 µM [inhibitor, full curve]"
13,CCOC(=O)c1c(C)[nH]c(C2=NNC(=Nc3ccc(OCC)cc3)SC2)c1C,"inconclusive: 35.5 µM [inhibitor, partial curve]"
14,c1ccc(-c2oc3ncnc(NCCCn4ccnc4)c3c2-c2ccccc2)cc1,"inconclusive: 22.4 µM [inhibitor, full curve, poor fit]"
15,C/C(CC(=O)NC(C)(C)C)=N\NC(N)=S,"inconclusive: 56.2 µM [inhibitor, single point]"
16,O=C(c1ccncc1)N1CCN(C2CCC(c3ccccc3)CC2)CC1 (stereo unspecified),"inconclusive: 15.8 µM [inhibitor, partial curve, poor fit]"
17,COc1ccc(C2C3=C(CCCC3=O)NC3=C2C(=O)c2ccccc23)cc1 (stereo unspecified),"inconclusive: 50.1 µM [inhibitor, partial curve]"
18,O=[N+]([O-])c1ccccc1/C=C/C=N/n1c(-c2ccccc2F)n[nH]c1=S,"inconclusive: 50.1 µM [inhibitor, partial curve]"
19,Cc1ccc(C(=O)N2CC(=O)Nc3ccc(F)cc3C2c2ccc(F)cc2)cc1[N+](=O)[O-] (stereo unspecified),"inconclusive: 39.8 µM [inhibitor, single point]"
20,COC(=O)c1ccccc1NC1=C/C(=N\S(=O)(=O)c2cccs2)c2ccccc2C1=O,active: 2 µM and active: 7.08 µM
